Reference: the supplement of paper PMC10441789
The other results are listed elsewhere or left out. Antibody binding of pooled human sera (four to six donors per pool; dilution not stated) to peptides of the Trypanosoma cruzi antigen TSSA on microarrays. Quantile-normalised fluorescence in arbitrary units, mean of duplicate arrays; higher = more binding. No active / inactive call. The uninfected pools are read here as the healthy donors of the same country. The strongest signals lie near the top of the scale (about 60,000).

Legend:
Experiment in all cases: antibody binding signal (normalised fluorescence) (arbitrary fluorescence units); higher = stronger serum antibody binding to peptide
[1] = test system: pooled sera of chronic Chagas disease patients, Argentina
Procedure: (§1)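 Microarray of 15-residue peptides over residues 30-55 of Trypanosoma cruzi TSSAII, each with 1 to 10 substitutions at naturally variable positions, probed with one serum pool per country.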

[2] = test system: pooled sera of chronic Chagas disease patients, Bolivia
Procedure: as §1

[3] = test system: pooled sera of chronic Chagas disease patients, Brazil
Procedure: as §1

[4] = test system: pooled sera of chronic Chagas disease patients, Colombia
Procedure: as §1

[5] = test system: pooled sera of chronic Chagas disease patients, Mexico
Procedure: as §1

[6] = test system: pooled sera of chronic Chagas disease patients, USA
Procedure: as §1

[7] = test system: pooled sera of uninfected people, Argentina
Procedure: as §1

[8] = test system: pooled sera of uninfected people, Bolivia
Procedure: as §1

[9] = test system: pooled sera of uninfected people, Brazil
Procedure: as §1

[10] = test system: pooled sera of uninfected people, Colombia
Procedure: as §1

[11] = test system: pooled sera of uninfected people, Mexico
Procedure: as §1

[12] = test system: pooled sera of uninfected people, USA
Procedure: as §1

Sequence	antibody binding signal [1]	antibody binding signal [2]	antibody binding signal [3]	antibody binding signal [4]	antibody binding signal [5]	antibody binding signal [6]	antibody binding signal [7]	antibody binding signal [8]	antibody binding signal [9]	antibody binding signal [10]	antibody binding signal [11]	antibody binding signal [12]
DKKTATGGTPSPPGA	494	751	539	3880	537	1480	281	105	348	734	182	132
SGTDNKAAAGGTPSQ	290	285	45300	2810	406	1040	155	704	2690	370	205	259
GTENKPATGGAPSQS	42200	17500	11300	718	2440	3480	522	2400	574	193	280	224
SGKDNKTATGETPSQ	637	1050	4810	1830	335	5950	210	271	230	312	113	195
KENKTAAGEAPSPSG	189	204	755	901	231	6640	234	130	143	157	112	138
TDKKPATGGAPSQPG	1620	3070	18700	3090	1410	1550	261	992	228	164	280	190
GKDKKPAAGGTPSPS	235	173	868	1380	502	532	116	71.5	474	114	76.2	111
KPATGEAPSQSGASS	50500	47900	50000	146	290	33900	1080	706	265	198	267	229
SGKDNKAAAGGAPSP	459	240	990	2170	1090	1380	179	206	117	424	79	129
KDKKAATGGAPSQSG	442	225	188	226	1610	312	242	94	103	149	89.9	98.9
DKKPAAGETPSPSGA	520	166	3700	169	284	2160	157	233	190	221	136	519
KTATGEAPSQPGASS	19800	16500	44800	150	633	21200	305	130	195	84.1	191	143
TENKTATGGTPSQPG	24000	1100	846	1760	437	648	541	185	467	274	1600	148
GKDNKTAAGEAPSQP	5390	15000	35700	3370	1960	6300	257	274	163	230	113	150
KDKKTATGGTPSPSG	342	252	211	1010	199	1180	171	81.9	123	100	84.2	122
TDKKAAAGEAPSQSG	1040	10400	9980	436	267	9490	102	247	150	116	155	179
SGKDKKPATGGTPSP	942	255	566	819	727	1060	168	92.8	226	355	108	108
TDNKAATGGAPSQSG	493	515	2460	538	642	1450	236	351	260	209	188	92.1
PSGKDNKAAAGETPS	2400	654	5360	7030	5110	5150	324	422	191	209	122	130
KEKKPATGETPSQPG	25000	7270	35900	249	331	17700	211	202	177	172	912	427
KDNKAAAGGAPSQPG	272	310	5200	1320	161	240	394	2210	130	160	80.1	121
TDNKAATGETPSQPG	6100	5470	40000	134	169	12500	107	621	354	211	123	183
KDKKTATGETPSQPG	414	683	19600	288	192	4860	129	149	169	135	149	123
TPPSGKEKKTAAGGT	3850	250	393	2690	11100	1890	230	201	641	190	92.9	112
GTDKKPATGEAPSQP	46500	39300	50500	5800	564	39100	870	646	334	265	699	203

Sequence	antibody binding signal [1]	antibody binding signal [2]	antibody binding signal [3]	antibody binding signal [4]	antibody binding signal [5]	antibody binding signal [6]	antibody binding signal [7]	antibody binding signal [8]	antibody binding signal [9]	antibody binding signal [10]	antibody binding signal [11]	antibody binding signal [12]
SGKENKTAAGEAPSP	3770	3300	17300	5470	4580	19100	7850	2830	311	537	638	190
STPPSGTDKKPAAGG	50300	31000	48900	8060	56000	18900	1570	658	450	285	5620	993
GKEKKAATGGTPSPP	3260	335	358	2490	3660	2560	139	69.1	200	445	73.5	104
NKAAAGEAPSPSGAS	378	2620	18200	291	349	11200	485	852	465	329	301	892
KEKKPATGEAPSPSG	40800	11100	41300	183	191	29300	795	228	161	160	101	334
SGKEKKTAAGETPSP	3240	408	3010	2250	5640	5480	193	188	89.3	231	176	263
PSGTEKKTAAGEAPS	12800	2940	4290	4350	4140	8820	792	782	203	1740	310	588
SGTENKTAAGETPSQ	33600	8130	14300	542	459	4200	476	381	179	340	215	201
ISTPPSGTDKKAATG	32700	4540	33500	8290	41000	3850	474	132	148	445	1330	244
TDKKAAAGGTPSPSG	1430	206	160	5840	499	1580	121	119	1210	173	118	208
EKKTAAGETPSPSGA	892	282	345	624	484	4520	178	1100	131	503	217	1400
TEKKTATGEAPSQPG	16100	33900	38500	406	1050	21900	176	181	372	136	284	181
DKKAATGETPSPPGA	868	929	15900	172	336	11000	519	199	190	473	184	663
SGKDNKTATGGTPSQ	904	396	694	3130	839	2260	324	152	148	402	106	197
GKDNKPATGEAPSPS	45800	29600	47200	3100	4210	38500	938	1170	247	438	352	131
ENKTAAGEAPSQSGA	385	19200	12100	192	248	8100	104	155	231	144	104	136
PPSGTDNKAATGEAP	38200	37100	45300	1030	1140	25700	553	587	763	219	182	260
GTENKAAAGGAPSQS	36000	402	1950	3480	1230	800	184	415	182	201	158	247
PPSGKDKKAAAGGTP	983	317	388	2410	24400	2190	137	453	428	257	86.2	98
GTENKTAAGGTPSQS	29500	549	415	5500	954	1880	428	467	1340	321	2980	173
EKKAAAGGAPSPPGA	489	228	302	5940	694	1080	206	789	350	134	140	544
GKDKKAATGETPSQP	2470	412	26500	3530	3700	9190	235	116	152	187	90.2	120
DNKTATGGAPSQPGA	700	1950	3850	747	343	483	386	201	434	314	528	299
DKKPATGGTPSQSGA	729	391	553	1280	703	668	340	281	756	297	157	180
STPPSGKEKKPATGE	30300	3030	14900	314	42900	10400	1030	1470	169	674	134	432
